# Laboratory results reported in the supplement of paper PMC4604168 (melanoma cell lines).
# The other results are listed elsewhere or left out. Most values come without repeats; read them as rough.
# Test system: A101D
# Assay: cell count relative to DMSO control; melanoma cells; higher = more viable cells
# Conditions: library dose: standard library concentration; 72 h
# 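Note: cells treated in 1,536-well plates, then fixed and DAPI-stained, with nuclei counted from automated high-throughput microscope images.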
row,SMILES,cell count
1,"CCCS(=O)(=O)Nc1ccc(F)c(C(=O)c2c[nH]c3ncc(Cl)cc23)c1F + NC(=O)Nc1cc(-c2cccc(F)c2)sc1C(=O)N[C@H]1CCCNC1 [AZD7762] (first compound 0.4 µM, partner dose 0.1 µM)",64.2%
2,"C=C(c1ccc(C(=O)O)cc1)c1cc2c(cc1C)C(C)(C)CCC2(C)C [Bexarotene] + COc1ccc(Cl)c(Nc2nc3ccccc3nc2NS(=O)(=O)c2cccc(NC(=O)C(C)(C)N)c2)c1 [XL147] (first compound 10 µM, partner dose 4 µM)",118%
3,"NC1(c2ccc(-c3nc4ccn5c(=O)[nH]nc5c4cc3-c3ccccc3)cc2)CCC1 + Nc1cccc2c1CN(C1CCC(=O)NC1=O)C2=O [lenalidomide] (first compound 2 µM, partner dose 5 µM)",111%
4,"NC1(c2ccc(-c3nc4ccn5c(=O)[nH]nc5c4cc3-c3ccccc3)cc2)CCC1 + O=C(O)c1ccc(-c2c[nH]c3ncc(-c4ccccc4)cc23)cc1C1CCCC1 [GSK650394] (first compound 2 µM, partner dose 0.8 µM)",91.3%
5,"C=C(c1ccc(C(=O)O)cc1)c1cc2c(cc1C)C(C)(C)CCC2(C)C [Bexarotene] + O=C(Nc1cccc(Cl)c1)Nc1ncc(CCNc2ncnc3ccsc23)s1 [SNS314] (first compound 10 µM, partner dose 0.004 µM)",77.7%
6,"CCCS(=O)(=O)Nc1ccc(F)c(C(=O)c2c[nH]c3ncc(Cl)cc23)c1F + NCC(=O)Nc1ccc(-n2nc(C(F)(F)F)cc2-c2ccc3c(ccc4ccccc43)c2)cc1 [OSU03012] (first compound 0.4 µM, partner dose 5 µM)",73.4%
7,"NC1(c2ccc(-c3nc4ccn5c(=O)[nH]nc5c4cc3-c3ccccc3)cc2)CCC1 + C=C(c1ccc(C(=O)O)cc1)c1cc2c(cc1C)C(C)(C)CCC2(C)C [Bexarotene] (first compound 2 µM, partner dose 10 µM)",87.5%
8,"CCCS(=O)(=O)Nc1ccc(F)c(C(=O)c2c[nH]c3ncc(Cl)cc23)c1F + COc1cc(Nc2ncc(F)c(Nc3ccc4c(n3)NC(=O)C(C)(C)O4)n2)cc(OC)c1OC [Tamatinib] (first compound 0.4 µM, partner dose 2 µM)",51.5%

# Test system: A2058
# Assay: as above
# Conditions: library dose: standard library concentration; 72 h
row,SMILES,cell count
1,"CS(=O)(=O)c1ccc(C(=O)Nc2ccc(Cl)c(-c3ccccn3)c2)c(Cl)c1 [vismodegib] + CNC(=O)c1cc(Oc2ccc(NC(=O)Nc3ccc(Cl)c(C(F)(F)F)c3)cc2)ccn1 [sorafenib] (first compound 5 µM, partner dose 2 µM)",102%
2,"C=C(c1ccc(C(=O)O)cc1)c1cc2c(cc1C)C(C)(C)CCC2(C)C [Bexarotene] + Clc1ccc(Nc2nnc(Cc3ccncc3)c3ccccc23)cc1 [vatalanib] (first compound 10 µM, partner dose 10 µM)",95.5%
3,"CN(c1ncccc1CNc1nc(Nc2ccc3c(c2)CC(=O)N3)ncc1C(F)(F)F)S(C)(=O)=O + CO[C@H]1C[C@@H]2CC[C@@H](C)[C@@](O)(O2)C(=O)C(=O)N2CCCC[C@H]2C(=O)O[C@H]([C@H](C)C[C@@H]2CC[C@@H](OCCO)[C@H](OC)C2)CC(=O)[C@H](C)/C=C(\C)[C@@H](O)[C@@H](OC)C(=O)[C@H](C)C[C@H](C)/C=C/C=C/C=C/1C [everolimus] (first compound 0.4 µM, partner dose 0.1 µM)",63.8%
4,"NC1(c2ccc(-c3nc4ccn5c(=O)[nH]nc5c4cc3-c3ccccc3)cc2)CCC1 + Cc1cc(N2CCOCC2)cc2[nH]c(-c3c(NC[C@@H](O)c4cccc(Cl)c4)cc[nH]c3=O)nc12 [BMS536924] (first compound 2 µM, partner dose 1 µM)",54.3%
5,"NC1(c2ccc(-c3nc4ccn5c(=O)[nH]nc5c4cc3-c3ccccc3)cc2)CCC1 + NCC(=O)Nc1ccc(-n2nc(C(F)(F)F)cc2-c2ccc3c(ccc4ccccc43)c2)cc1 [OSU03012] (first compound 2 µM, partner dose 5 µM)",97.9%
6,"CCCS(=O)(=O)Nc1ccc(F)c(C(=O)c2c[nH]c3ncc(Cl)cc23)c1F + Nc1ncn([C@H]2C[C@H](O)[C@@H](CO)O2)c(=O)n1 [decitabine] (first compound 0.4 µM, partner dose 0.5 µM)",83%
7,"C=C(c1ccc(C(=O)O)cc1)c1cc2c(cc1C)C(C)(C)CCC2(C)C [Bexarotene] + Nc1cccc2c1CN(C1CCC(=O)NC1=O)C2=O [lenalidomide] (first compound 10 µM, partner dose 5 µM)",92.8%
8,"C=C(c1ccc(C(=O)O)cc1)c1cc2c(cc1C)C(C)(C)CCC2(C)C [Bexarotene] + NC(=O)Nc1cc(-c2cccc(F)c2)sc1C(=O)N[C@H]1CCCNC1 [AZD7762] (first compound 10 µM, partner dose 0.1 µM)",102%
9,"CCCS(=O)(=O)Nc1ccc(F)c(C(=O)c2c[nH]c3ncc(Cl)cc23)c1F + O=C(CCCCCCC(=O)Nc1ccccc1)NO [vorinostat] (first compound 0.4 µM, partner dose 0.4 µM)",125%
10,"CN(c1ncccc1CNc1nc(Nc2ccc3c(c2)CC(=O)N3)ncc1C(F)(F)F)S(C)(=O)=O + CCCS(=O)(=O)Nc1ccc(F)c(C(=O)c2c[nH]c3ncc(Cl)cc23)c1F [PLX4720] (first compound 0.4 µM, partner dose 0.4 µM)",75.3%
11,"NC1(c2ccc(-c3nc4ccn5c(=O)[nH]nc5c4cc3-c3ccccc3)cc2)CCC1 + COc1ccc(Cl)c(Nc2nc3ccccc3nc2NS(=O)(=O)c2cccc(NC(=O)C(C)(C)N)c2)c1 [XL147] (first compound 2 µM, partner dose 4 µM)",71.9%
12,"CS(=O)(=O)c1ccc(C(=O)Nc2ccc(Cl)c(-c3ccccn3)c2)c(Cl)c1 [vismodegib] + C=CCn1c(=O)c2cnc(Nc3ccc(N4CCN(C)CC4)cc3)nc2n1-c1cccc(C(C)(C)O)n1 [MK1775] (first compound 5 µM, partner dose 0.1 µM)",84.3%
13,"CS(=O)(=O)c1ccc(C(=O)Nc2ccc(Cl)c(-c3ccccn3)c2)c(Cl)c1 [vismodegib] + COc1ccc(Cl)c(Nc2nc3ccccc3nc2NS(=O)(=O)c2cccc(NC(=O)C(C)(C)N)c2)c1 [XL147] (first compound 5 µM, partner dose 4 µM)",81.3%
14,"NC1(c2ccc(-c3nc4ccn5c(=O)[nH]nc5c4cc3-c3ccccc3)cc2)CCC1 + COc1cc(Nc2ncc(F)c(Nc3ccc4c(n3)NC(=O)C(C)(C)O4)n2)cc(OC)c1OC [Tamatinib] (first compound 2 µM, partner dose 2 µM)",56.8%
15,"C=C(c1ccc(C(=O)O)cc1)c1cc2c(cc1C)C(C)(C)CCC2(C)C [Bexarotene] + NCC(=O)Nc1ccc(-n2nc(C(F)(F)F)cc2-c2ccc3c(ccc4ccccc43)c2)cc1 [OSU03012] (first compound 10 µM, partner dose 5 µM)",91.6%
16,"CS(=O)(=O)c1ccc(C(=O)Nc2ccc(Cl)c(-c3ccccn3)c2)c(Cl)c1 [vismodegib] + O=C(O)c1ccc(-c2c[nH]c3ncc(-c4ccccc4)cc23)cc1C1CCCC1 [GSK650394] (first compound 5 µM, partner dose 0.8 µM)",87.9%
17,"NC1(c2ccc(-c3nc4ccn5c(=O)[nH]nc5c4cc3-c3ccccc3)cc2)CCC1 + CO[C@@H]1[C@H](N(C)C(=O)c2ccccc2)C[C@H]2O[C@]1(C)n1c3ccccc3c3c4c(c5c6ccccc6n2c5c31)C(=O)NC4 [Midostaurin] (first compound 2 µM, partner dose 0.4 µM)",50.8%
18,"CN(c1ncccc1CNc1nc(Nc2ccc3c(c2)CC(=O)N3)ncc1C(F)(F)F)S(C)(=O)=O + Nc1ncn([C@H]2C[C@H](O)[C@@H](CO)O2)c(=O)n1 [decitabine] (first compound 0.4 µM, partner dose 0.5 µM)",61.8%
19,"CN(c1ncccc1CNc1nc(Nc2ccc3c(c2)CC(=O)N3)ncc1C(F)(F)F)S(C)(=O)=O + Cn1c(Nc2ccc(C(F)(F)F)cc2)nc2cc(Oc3ccnc(-c4ncc(C(F)(F)F)[nH]4)c3)ccc21 [CHIR265] (first compound 0.4 µM, partner dose 0.4 µM)",56.2%
20,"NC1(c2ccc(-c3nc4ccn5c(=O)[nH]nc5c4cc3-c3ccccc3)cc2)CCC1 + O=C(Nc1cccc(Cl)c1)Nc1ncc(CCNc2ncnc3ccsc23)s1 [SNS314] (first compound 2 µM, partner dose 0.004 µM)",81%
21,"CCCS(=O)(=O)Nc1ccc(F)c(C(=O)c2c[nH]c3ncc(Cl)cc23)c1F + Clc1ccc(Nc2nnc(Cc3ccncc3)c3ccccc23)cc1 [vatalanib] (first compound 0.4 µM, partner dose 10 µM)",88.8%
22,"NC1(c2ccc(-c3nc4ccn5c(=O)[nH]nc5c4cc3-c3ccccc3)cc2)CCC1 + C[C@@H](Oc1cc(-c2cnn(C3CCNCC3)c2)cnc1N)c1c(Cl)ccc(F)c1Cl [Crizotinib] (first compound 2 µM, partner dose 1 µM)",50.7%
23,"CN(c1ncccc1CNc1nc(Nc2ccc3c(c2)CC(=O)N3)ncc1C(F)(F)F)S(C)(=O)=O + Cn1nnc2c(C(N)=O)ncn2c1=O [temozolomide] (first compound 0.4 µM, partner dose 10 µM)",35.5%
